# The supplement of paper PMC9446081
# Among all 39,000 compounds or so, about 220 (0.56%) showed activity. Some of the results follow.
# Test system: Escherichia coli K-12 BW25113
# Assay: relative growth (OD600 normalised to plate interquartile mean) (fraction); higher = less growth inhibition, active = 0.2 or less
# Settings: 50 µM; LB; incubation time: overnight (16-24 h)
# 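Note: static incubation at 37 °C against the wild-type strain, values averaged over two biological replicates.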
row,Compound,relative growth
1,CC(C)NC(=O)N(C)C[C@@H]1OCCCC[C@@H](C)Oc2ccc(NS(=O)(=O)c3cn(C)cn3)cc2C(=O)N([C@H](C)CO)C[C@H]1C,inactive: 0.973
2,COc1ccc(NC(=O)N(C)C[C@@H]2OCCCC[C@H](C)Oc3ccc(NC(=O)c4ccncc4)cc3C(=O)N([C@@H](C)CO)C[C@H]2C)cc1,inactive: 0.985
3,OCCN1CCN(c2ncnc3c2ncn3[C@H]2CN(Cc3cccc(C(F)(F)F)c3)C[C@@H](CO)O2)CC1,inactive: 0.957
4,CNCc1nncn1C(C)C,inactive: 1
5,CC(=O)Oc1cccc2c1C(=O)c1c(OC(C)=O)cc(C(=O)O)cc1C2=O,inactive: 0.976
6,Cc1ncc([N+](=O)[O-])n1C[C@@H](O)CCl,inactive: 0.995
7,Cc1noc(C)c1S(=O)(=O)N(C)C[C@@H]1Oc2ccc(NC(=O)Cc3cn(C)c4ccccc34)cc2CC(=O)N([C@H](C)CO)C[C@@H]1C,inactive: 1.01
8,C[C@@H]1CCCCO[C@@H](CN(C)S(=O)(=O)c2ccc(Cl)cc2)[C@H](C)CN([C@@H](C)CO)C(=O)c2cc(NC(=O)Nc3ccccc3)ccc2O1,inactive: 1.04
9,Cc1noc(C)c1S(=O)(=O)Nc1ccc2c(c1)C(=O)N([C@@H](C)CO)C[C@H](C)[C@H](CN(C)C)OCCCC[C@@H](C)O2,inactive: 0.931
10,C[C@@H]1CCCCO[C@@H](CN(C)Cc2ccncc2)[C@@H](C)CN([C@H](C)CO)C(=O)c2cc(NC(=O)Nc3ccc(C(F)(F)F)cc3)ccc2O1,inactive: 1.04
11,Cc1noc(C)c1NC(=O)Nc1ccc2c(c1)C(=O)N([C@@H](C)CO)C[C@H](C)[C@@H](CN(C)Cc1ccc(Oc3ccccc3)cc1)O2,inactive: 1
12,C=CCOC(=O)[C@@H]1[C@H]2C(=O)O[C@H](c3ccccc3)[C@H](c3ccccc3)N2[C@H](c2ccc(OCCOC(=O)[C@@H]3C[C@@H]4C(=O)N5CCC[C@H]5C(=O)N4[C@@H]3c3ccc(O)cc3)cc2)[C@@]12C(=O)Nc1ccccc12,inactive: 1.06
13,Cc1ccccc1S(=O)(=O)N1C[C@H](O)COC[C@H]2O[C@@H](CC(=O)NCc3ccccc3Cl)CC[C@@H]21,inactive: 0.991
14,Nc1ccn([C@@H]2CS[C@H](CO)O2)c(=O)n1,inactive: 0.988
15,Cc1noc(C)c1NC(=O)N(C)C[C@H]1Oc2ncc(C#CCN(C)C)cc2C(=O)N([C@@H](C)CO)C[C@@H]1C,inactive: 1
16,C[C@@H]1CN([C@H](C)CO)S(=O)(=O)c2ccc(C#CC3(O)CCCC3)cc2O[C@@H]1CN(C)C(=O)Nc1ccccc1,inactive: 0.979
17,C[C@H](CO)N1C[C@H](C)[C@@H](CN(C)CC2CCCCC2)OCCCC[C@H](C)Oc2ccc(NC(=O)Nc3ccccc3)cc2C1=O,inactive: 0.899
18,Cc1ccc(S(=O)(=O)N(C)C[C@@H]2Oc3ccc(NC(=O)Nc4cccc5ccccc45)cc3CC(=O)N([C@@H](C)CO)C[C@@H]2C)cc1,inactive: 1.03
19,C[C@H]1CCCCO[C@@H](CN(C)Cc2ccc(C(=O)O)cc2)[C@@H](C)CN([C@@H](C)CO)C(=O)c2cc(NC(=O)c3ccccc3)ccc2O1,inactive: 1.02

row,Compound,relative growth
1,COc1ccc(NC(=O)N(C)C[C@H]2OCCCC[C@H](C)Oc3ccc(NC(=O)C4CCCCC4)cc3C(=O)N([C@@H](C)CO)C[C@@H]2C)cc1,inactive: 1.02
2,C[C@@H]1CN([C@H](C)CO)C(=O)c2cc(NC(=O)Cc3cn(C)c4ccccc34)ccc2O[C@@H]1CN(C)C(=O)Nc1cccc2ccccc12,inactive: 1.01
3,Cc1c(CN2CCC(Nc3ncnc4sc(CC(F)(F)F)cc34)CC2)ccc2c1cc(C#N)n2Cc1cn[nH]c1,inactive: 1.03
4,Cc1noc(C)c1NC(=O)Nc1cccc2c1O[C@H](CN(C)Cc1ccc(Oc3ccccc3)cc1)[C@H](C)CN([C@@H](C)CO)C2=O,inactive: 0.985
5,Cn1cnc(S(=O)(=O)N[C@@H]2C=C[C@H](CC(=O)N3CCN(c4ccccc4)CC3)O[C@H]2CO)c1,inactive: 0.995
6,C[C@H](CO)N1C[C@H](C)[C@H](CN(C)C(=O)Nc2ccccc2)Oc2ccc(NS(C)(=O)=O)cc2CC1=O,inactive: 0.975
7,C[C@@H]1CN([C@@H](C)CO)C(=O)c2cccc(NC(=O)c3cnccn3)c2O[C@@H]1CN(C)Cc1ccncc1,inactive: 0.987
8,Cc1noc(C)c1NC(=O)Nc1ccc2c(c1)C(=O)N([C@H](C)CO)C[C@H](C)[C@H](CN(C)C(=O)Nc1ccc(C(F)(F)F)cc1)O2,inactive: 0.943
9,CON=C(C(=O)NC1C(=O)N2C(C(=O)OCOC(=O)C(C)(C)C)=C(C=Cc3scnc3C)CSC12)c1csc(N)n1 (configuration not stated),active: 0.0492
10,C[C@H]1CN([C@@H](C)CO)C(=O)Cc2cc(NS(=O)(=O)c3ccccc3)ccc2O[C@@H]1CN(C)S(=O)(=O)c1cn(C)cn1,inactive: 0.998
11,C[C@@H]1CN([C@@H](C)CO)C(=O)c2cc(NC(=O)C3CCCCC3)ccc2O[C@@H]1CN(C)C(=O)Nc1ccc(C(F)(F)F)cc1,inactive: 0.994
12,C[C@@H]1CN([C@H](C)CO)C(=O)c2cc(NC(=O)Nc3ccc4c(c3)OCO4)ccc2O[C@@H](C)CCCCO[C@@H]1CN(C)C(=O)CCC(F)(F)F,inactive: 0.934
13,NC(=O)c1nnn(Cc2ccccc2)c1N,inactive: 1.02
14,C[C@@H]1CN([C@@H](C)CO)C(=O)c2ccccc2-c2ccccc2CO[C@@H]1CN(C)C(=O)Nc1ccccc1C(F)(F)F,inactive: 1.01
15,COc1ccc(S(=O)(=O)N[C@@H]2CC[C@@H](CC(=O)N3CCN(c4ccccc4)CC3)O[C@H]2CO)cc1,inactive: 0.987
16,C[C@H](CO)N1C[C@H](C)[C@@H](CN(C)Cc2ccncc2)Oc2ccc(NS(=O)(=O)c3ccc(F)cc3)cc2C1=O,inactive: 0.99
17,COc1ccc(CN(C)C[C@@H]2Oc3ccc(NC(=O)Nc4cccc5ccccc45)cc3C(=O)N([C@H](C)CO)C[C@@H]2C)cc1,inactive: 0.97
18,C[C@@H]1CCCCO[C@H](CN(C)C(=O)c2ccncc2)[C@H](C)CN([C@@H](C)CO)C(=O)c2cc(NC(=O)C3CCCCC3)ccc2O1,inactive: 0.977
